{
  "sequences": {"note": "Sequences of proteins named here, by UniProt entry; tags and fusion partners are left off.", "UniProt P48436": "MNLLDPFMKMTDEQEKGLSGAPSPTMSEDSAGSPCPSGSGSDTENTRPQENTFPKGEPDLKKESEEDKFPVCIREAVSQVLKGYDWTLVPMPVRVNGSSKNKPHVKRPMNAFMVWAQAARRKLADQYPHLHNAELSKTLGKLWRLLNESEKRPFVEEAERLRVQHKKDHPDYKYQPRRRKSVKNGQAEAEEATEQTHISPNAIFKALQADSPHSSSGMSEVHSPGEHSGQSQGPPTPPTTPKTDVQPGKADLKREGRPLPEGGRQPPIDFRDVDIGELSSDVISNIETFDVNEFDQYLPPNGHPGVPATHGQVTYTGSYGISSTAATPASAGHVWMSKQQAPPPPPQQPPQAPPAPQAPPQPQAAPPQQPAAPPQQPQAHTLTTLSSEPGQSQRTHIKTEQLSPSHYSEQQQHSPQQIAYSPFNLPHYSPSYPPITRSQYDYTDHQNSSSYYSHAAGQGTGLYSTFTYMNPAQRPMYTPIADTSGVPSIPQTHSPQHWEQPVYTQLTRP", "UniProt Q969H0": "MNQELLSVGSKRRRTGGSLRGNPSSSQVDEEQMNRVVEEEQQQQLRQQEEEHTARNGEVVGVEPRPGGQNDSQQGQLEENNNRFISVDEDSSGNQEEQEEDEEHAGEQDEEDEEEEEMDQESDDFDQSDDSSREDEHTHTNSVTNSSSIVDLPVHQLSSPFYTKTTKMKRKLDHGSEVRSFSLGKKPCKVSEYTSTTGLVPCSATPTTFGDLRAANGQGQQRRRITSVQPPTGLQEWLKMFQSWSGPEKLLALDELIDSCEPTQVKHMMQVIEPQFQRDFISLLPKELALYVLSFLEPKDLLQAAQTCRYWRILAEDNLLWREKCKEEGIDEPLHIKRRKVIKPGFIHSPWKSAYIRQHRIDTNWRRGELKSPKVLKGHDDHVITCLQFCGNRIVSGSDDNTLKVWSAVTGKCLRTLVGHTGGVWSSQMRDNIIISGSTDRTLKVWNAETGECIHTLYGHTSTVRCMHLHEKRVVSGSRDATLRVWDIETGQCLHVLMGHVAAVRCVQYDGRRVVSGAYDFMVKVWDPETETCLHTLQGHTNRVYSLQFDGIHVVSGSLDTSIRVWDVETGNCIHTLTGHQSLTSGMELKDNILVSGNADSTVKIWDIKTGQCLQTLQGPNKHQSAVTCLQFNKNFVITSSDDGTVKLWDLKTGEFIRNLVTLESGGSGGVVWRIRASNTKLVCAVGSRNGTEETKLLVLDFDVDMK", "UniProt Q96LA8": "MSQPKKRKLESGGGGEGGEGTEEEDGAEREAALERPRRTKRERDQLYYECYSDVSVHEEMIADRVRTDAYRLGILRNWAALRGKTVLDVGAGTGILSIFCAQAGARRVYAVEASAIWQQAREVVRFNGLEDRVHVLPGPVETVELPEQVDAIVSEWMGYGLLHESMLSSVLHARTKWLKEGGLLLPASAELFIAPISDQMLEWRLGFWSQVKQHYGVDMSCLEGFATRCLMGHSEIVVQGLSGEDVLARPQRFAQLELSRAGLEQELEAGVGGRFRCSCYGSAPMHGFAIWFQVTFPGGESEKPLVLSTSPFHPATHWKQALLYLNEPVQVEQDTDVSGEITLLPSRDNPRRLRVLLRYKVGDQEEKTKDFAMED", "UniProt O14744": "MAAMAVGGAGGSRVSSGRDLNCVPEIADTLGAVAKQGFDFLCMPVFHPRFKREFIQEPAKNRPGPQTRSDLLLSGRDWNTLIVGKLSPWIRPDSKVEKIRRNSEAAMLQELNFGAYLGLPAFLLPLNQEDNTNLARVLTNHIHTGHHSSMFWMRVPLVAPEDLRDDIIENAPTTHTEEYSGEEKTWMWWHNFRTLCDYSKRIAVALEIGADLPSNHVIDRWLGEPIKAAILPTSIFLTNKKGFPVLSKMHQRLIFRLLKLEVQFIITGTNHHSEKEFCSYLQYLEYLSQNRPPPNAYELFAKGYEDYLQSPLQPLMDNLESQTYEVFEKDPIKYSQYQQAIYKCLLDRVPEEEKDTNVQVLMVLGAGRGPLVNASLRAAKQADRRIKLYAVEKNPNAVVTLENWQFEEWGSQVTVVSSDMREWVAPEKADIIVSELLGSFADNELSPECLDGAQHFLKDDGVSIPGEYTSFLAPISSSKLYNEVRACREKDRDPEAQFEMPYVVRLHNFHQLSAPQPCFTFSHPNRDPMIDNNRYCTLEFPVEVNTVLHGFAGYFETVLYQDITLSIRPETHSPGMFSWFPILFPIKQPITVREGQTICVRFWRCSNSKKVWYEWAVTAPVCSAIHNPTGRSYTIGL", "UniProt Q99873": "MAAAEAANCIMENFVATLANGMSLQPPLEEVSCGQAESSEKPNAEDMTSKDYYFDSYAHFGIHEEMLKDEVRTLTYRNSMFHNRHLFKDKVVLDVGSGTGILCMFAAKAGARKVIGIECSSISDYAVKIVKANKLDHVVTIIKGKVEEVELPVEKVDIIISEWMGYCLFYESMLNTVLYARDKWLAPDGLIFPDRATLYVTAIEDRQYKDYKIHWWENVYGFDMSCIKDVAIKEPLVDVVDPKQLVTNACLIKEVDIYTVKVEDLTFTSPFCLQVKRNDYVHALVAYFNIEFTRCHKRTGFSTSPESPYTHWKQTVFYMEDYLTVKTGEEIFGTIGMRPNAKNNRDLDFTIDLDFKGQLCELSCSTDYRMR", "UniProt Q14145": "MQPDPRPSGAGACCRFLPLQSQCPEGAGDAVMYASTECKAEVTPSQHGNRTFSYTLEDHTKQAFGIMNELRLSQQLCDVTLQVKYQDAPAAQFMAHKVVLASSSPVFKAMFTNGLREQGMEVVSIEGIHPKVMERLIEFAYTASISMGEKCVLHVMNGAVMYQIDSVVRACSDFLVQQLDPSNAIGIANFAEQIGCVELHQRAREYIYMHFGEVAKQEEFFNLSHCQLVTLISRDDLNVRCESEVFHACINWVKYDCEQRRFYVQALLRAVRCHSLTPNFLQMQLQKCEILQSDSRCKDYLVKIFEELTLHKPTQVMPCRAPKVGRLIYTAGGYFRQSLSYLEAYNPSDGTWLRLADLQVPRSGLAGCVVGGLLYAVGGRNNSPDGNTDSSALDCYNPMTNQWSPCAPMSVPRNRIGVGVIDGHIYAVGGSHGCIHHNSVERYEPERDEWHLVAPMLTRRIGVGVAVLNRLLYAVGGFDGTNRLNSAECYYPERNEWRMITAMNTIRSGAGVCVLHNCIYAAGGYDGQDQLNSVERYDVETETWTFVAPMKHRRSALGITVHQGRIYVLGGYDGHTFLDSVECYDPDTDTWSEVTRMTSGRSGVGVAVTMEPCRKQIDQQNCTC"},
  "source": "paper PMC12722591",
  "molecules": {"B1": {"name": "T7-PRMT7 (1–345 aa) (domain or fragment, UniProt Q9NVM4 1-345)", "chain": "MKIFCSRANPTTGSVEWLEEDEHYDYHQEIARSSYADMLHDKDRNVKYYQGIRAAVSRVKDRGQKALVLDIGTGTGLLSMMAVTAGADFCYAIEVFKPMADAAVKIVEKNGFSDKIKVINKHSTEVTVGPEGDMPCRANILVTELFDTELIGEGALPSYEHAHRHLVEENCEAVPHRATVYAQLVESGRMWSWNKLFPIHVQTSLGEQVIVPPVDVESCPGAPSVCDIQLNQVSPADFTVLSDVLPMFSIDFSKQVSSSAACHSRRFEPLTSGRAQVVLSWWDIEMDPEGKIKCTMAPFWAHSDPEEMQWRDHWMQCVYFLPQEEPVVQGSALYLVAHHDDYCVW"}},
  "key": {"[1]": {"target": "Flag-tagged SOX9 (SRY-box transcription factor 9) (UniProt P48436)", "test": "co-IP; HEK293T co-transfected with Flag-SOX9 and HA-KEAP1 or HA-FBXW7, with or without His-PRMT7; harvested after 36 h, IP with the indicated antibodies, immunoblot"}, "[2]": {"target": "Flag-tagged SOX9 (SRY-box transcription factor 9) (UniProt P48436)", "test": "co-IP; HEK293T cells co-transfected with tagged PRMT and Flag-SOX9 constructs (36 h); lysates in IP Lysis Buffer, antibody overnight at 4 °C, Protein A/G beads 6 h, immunoblot"}, "[3]": {"target": "T1, His-tagged PRMT7 (protein arginine methyltransferase 7) (UniProt Q9NVM4)", "T1 sequence": "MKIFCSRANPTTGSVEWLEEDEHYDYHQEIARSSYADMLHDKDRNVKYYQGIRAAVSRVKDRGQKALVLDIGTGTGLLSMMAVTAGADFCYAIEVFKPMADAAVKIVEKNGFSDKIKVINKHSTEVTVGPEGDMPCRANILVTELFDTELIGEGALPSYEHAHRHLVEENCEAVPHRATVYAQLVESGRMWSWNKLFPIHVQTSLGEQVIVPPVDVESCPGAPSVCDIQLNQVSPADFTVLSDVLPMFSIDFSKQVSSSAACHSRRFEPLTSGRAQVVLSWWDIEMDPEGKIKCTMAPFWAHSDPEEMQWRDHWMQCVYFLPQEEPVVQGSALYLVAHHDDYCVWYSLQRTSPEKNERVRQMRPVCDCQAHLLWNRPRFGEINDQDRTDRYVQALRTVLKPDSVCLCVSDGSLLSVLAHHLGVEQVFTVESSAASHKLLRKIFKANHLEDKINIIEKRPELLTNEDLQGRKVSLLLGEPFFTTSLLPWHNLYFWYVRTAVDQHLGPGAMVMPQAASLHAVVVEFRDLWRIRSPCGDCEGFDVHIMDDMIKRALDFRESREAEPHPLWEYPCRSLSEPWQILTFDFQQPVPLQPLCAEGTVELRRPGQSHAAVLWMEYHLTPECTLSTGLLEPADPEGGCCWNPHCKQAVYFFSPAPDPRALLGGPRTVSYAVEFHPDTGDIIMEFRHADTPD", "test": "co-IP; semi-endogenous; HEK293T transfected with His-PRMT7 or empty vector, lysate immunoprecipitated with anti-His antibody, immunoblot with anti-SOX9"}, "[4]": {"target": "Flag-tagged SOX9 (SRY-box transcription factor 9) (UniProt P48436)", "test": "co-IP; HEK293T cells co-transfected with tagged PRMT and Flag-SOX9 constructs (36 h); lysates in IP Lysis Buffer, antibody overnight at 4 °C, Protein A/G beads 6 h, immunoblot", "remark": "listed apart in the source"}},
  "note": "No constants are given. Whether binding was seen depends on the method and setting. Binding seen in cells or lysates may run through a third protein. Some entries that bind do so weakly or less than the wild type. For some of these results: Where a sequence is shown, tags or fusion partners need not be part of it.",
  "data": [
    {"molecule": "HA-FBXW7 (F-Box and WD repeat domain containing 7) (from UniProt Q969H0 1-707)", "values": [
      {"measurement": "binding", "setting": "[1]", "result": "binds"}
    ]},
    {"molecule": "His-tagged PRMT6 (from UniProt Q96LA8 1-375) (enzyme)", "values": [
      {"measurement": "binding", "setting": "[2]", "result": "no binding"}
    ]},
    {"molecule": "His-tagged PRMT5 (from UniProt O14744 1-637) (enzyme)", "values": [
      {"measurement": "binding", "setting": "[2]", "result": "no binding"}
    ]},
    {"molecule": "SOX9, endogenous in HEK293T cells (from UniProt P48436 1-509)", "values": [
      {"measurement": "binding", "setting": "[3]", "result": "binds"}
    ]},
    {"molecule": "His-tagged PRMT1 (from UniProt Q99873 1-371) (enzyme)", "values": [
      {"measurement": "binding", "setting": "[2]", "result": "no binding"}
    ]},
    {"molecule": "HA-KEAP1 (kelch like ECH associated protein 1) (from UniProt Q14145 1-624)", "values": [
      {"measurement": "binding", "setting": "[1]", "result": "binds"}
    ]},
    {"molecule": "B1", "values": [
      {"measurement": "binding", "setting": "[4]", "result": "binds"}
    ]}
  ]
}
